In PubChem BioAssay AID894 (National Center for Advancing Translational Sciences (NCATS), 2007):
Among all 150,000 compounds or so, about 6,500 (4.3%) were called active. Inconclusive means that the source gave no clear call. Such entries were picked first, then a sample of the others. The call rests on the fitted dose curve; in most records, active means well fitted inhibition curve with a large enough effect (not every such curve was filed as active); inconclusive means small, poorly fitted or top-dose-only effect, or another doubt; inactive means no such curve, though single readings can be large or run the other way. No potency is given beside an inconclusive call; the fits are too rough.

Molecular target: 15-hydroxyprostaglandin dehydrogenase [NAD(+)] (Homo sapiens) (UniProt P15428)
Experiment: qHTS Assay for Inhibitors of HPGD (15-Hydroxyprostaglandin Dehydrogenase)
Conditions: purified HPGD, NADH fluorescence kinetic, PGE2 substrate; activity change, negative = inhibition: active compounds read low
Outline: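 NADH formation kinetics: reaction with 30 uM PGE2 and 1 mM NAD+ (final), 20 nM enzyme, Tris-HCl pH 8 with Tween 20, after 15 min compound preincubation at room temperature. Fluorescence change, last versus first of five reads.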
On the % scale 0 is the no-effect control and ±100 the full control effect; potency means the concentration at half of the fitted maximal effect; tags describe the fitted curve by direction and shape.

Sequence of UniProt P15428 (P15428 whole entry, looked up): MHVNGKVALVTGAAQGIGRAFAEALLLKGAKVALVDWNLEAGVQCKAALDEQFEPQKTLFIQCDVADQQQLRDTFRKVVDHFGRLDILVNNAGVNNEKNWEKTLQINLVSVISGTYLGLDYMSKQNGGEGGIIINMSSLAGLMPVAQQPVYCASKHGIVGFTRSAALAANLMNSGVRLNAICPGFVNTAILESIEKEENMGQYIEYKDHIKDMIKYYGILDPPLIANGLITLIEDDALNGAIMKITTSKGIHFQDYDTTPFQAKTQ

SMILES | Potency | activity change, negative = inhibition
NC(=O)c1ccccc1N=Cc1ccc2ccccc2c1 | inconclusive [inhibitor, partial curve] | 
Cc1cccc(N=Cc2[nH]c3ccc(Br)c(Cl)c3c2O)c1 | active: 14.1 µM | 
O=C(O)C1CSC2c3ccccc3C(=O)N12 (stereo not drawn) | inconclusive [inhibitor, single point] | 
Cc1ccc2[nH]c(=O)c(CNC(C)(C)C)cc2c1 | inconclusive [inhibitor, single point] | 
Cc1ccc2[nH]c(=O)c(C(c3nnnn3CC3CCCO3)N3CCc4ccccc4C3)cc2c1 (stereo not drawn) | inconclusive [inhibitor, single point] | 
Cc1ccc(S(=O)(=O)Nc2ccc(-c3nnc(SCc4ccccc4Cl)o3)cc2)cc1 | inconclusive [inhibitor, partial curve] | 
N#C/C(=C\c1cn(-c2ccccc2)nc1-c1cccnc1)c1nnc2n1CCCCC2 | inconclusive [inhibitor, partial curve] | 
COC(=O)[C@H](CCSC)NC(=O)Nc1ccc(OC)c(Cl)c1 | inconclusive [inhibitor, single point] | 
COc1ccc(/C=C2\CCCC3C2=NN(C(=O)c2ccco2)C3c2ccc(OC)c(OC)c2)cc1OC (stereo not drawn) | inconclusive [inhibitor, partial curve] | 
COc1ccc(-c2cc(C(F)(F)F)nc(SCC(=O)NCc3cnn(C)c3C)n2)cc1OC | inconclusive [inhibitor, single point] | 
COC(=O)c1cn(NC(=O)C2CCCCC2)c(=O)c2ccccc12 | inconclusive [inhibitor, single point] | 
Nc1ncnc2c1ncn2[C@H]1O[C@@H](C(=O)O)[C@@H](O)[C@H]1O |  | inactive: 0.303%
N#Cc1c(F)cccc1N1CCOCC1 | inconclusive [inhibitor, partial curve] | 
CCOC(=O)Nc1ccc2c(COC(=O)CNS(=O)(=O)c3cccc(Br)c3)cc(=O)oc2c1 | inconclusive [inhibitor, partial curve] | 
Cc1nn(-c2ccccc2)c2[nH]c(=O)c(CNCc3ccc4c(c3)OCO4)cc12 | inconclusive [inhibitor, partial curve] | 
CCCc1cn(S(=O)(=O)c2ccc(OC)cc2OC)nc1N |  | inactive: -4.66%
CCc1nc(Nc2ccccc2)c2oc3ccccc3c2n1 | inconclusive [inhibitor, partial curve] | 
O=C(OCc1ccccc1)/C(=C/c1ccc(Cl)cc1)NC(=O)c1ccccc1Cl | inconclusive [inhibitor, single point] | 
Cc1ccc(C)c(S(=O)(=O)NCc2ccc(C(=O)N3CCC(Cc4ccccc4)CC3)cc2)c1 | inconclusive [inhibitor, partial curve] | 
Cc1ccc(C)c(NC(=O)c2cnn3ccccc23)c1 |  | inactive: -9.58%
COC(=O)c1cccc(NC(=O)c2cc(OC)c(OC)c(OC)c2Br)c1 | inconclusive [inhibitor, partial curve] | 
CCOC(=O)c1sc(C)c2c1NC(C)(c1cccc3ccccc13)NC2=O (stereo not drawn) | inconclusive [inhibitor, partial curve] | 

SMILES | Potency | activity change, negative = inhibition
Cc1ccc(-c2nc3ccccc3o2)cc1NC(=S)NC(=O)c1cc2ccccc2o1 | inconclusive [inhibitor, partial curve] | 
CC(=O)c1c(C(C)=O)c(C)n(-c2ccc(C)c(NC(=O)c3ccccc3Cl)c2)c1C |  | inactive: 0.436%
Cc1cc(C)n2c(-c3ccccc3Cl)nnc2n1 | inconclusive [inhibitor, partial curve] | 
COc1ccc2c(c1)c(C(=O)N1CCN(C)CC1)c(C)n2-c1ccccc1 | inconclusive [inhibitor, partial curve] | 
Cc1nc2c(c(C)nn2-c2ccccc2)c(C)c1Cl | inconclusive [inhibitor, single point] | 
CC(C)(C)[Si](C)(C)c1c2c(nc3ccc(OCc4ccccc4)cc13)-c1cccc(=O)n1C2 | inconclusive [inhibitor, full curve, poor fit] | 
CCc1ccccc1Nc1nc(N)nc(CSCC(=O)Nc2ccc(C)c(C)c2)n1 |  | inactive: 0.382%
COc1ccccc1C1CC(c2ccc(Br)cc2)=NN1C(=O)c1cccnc1 (stereo not drawn) | inconclusive [inhibitor, partial curve] | 
COc1cccc(Cn2cccc(NC(=O)Nc3ccc(C#N)cc3)c2=O)c1 | inconclusive [inhibitor, partial curve] | 
O=C(COC(=O)/C=C/c1nc2ccccc2s1)Nc1cccc(Cl)c1Cl | inconclusive [inhibitor, partial curve] | 
Cc1ccc2cc3cc(C(=O)NCc4ccc5c(c4)OCO5)oc3nc2c1 | inconclusive [inhibitor, partial curve] | 
CSc1ccc(Cl)c(C(=O)OCC(=O)NCC(C)C)c1 | active: 14.1 µM | 
CCOc1ccc(NC(=O)c2nnn(CC(=O)Nc3ccccc3OC)c2N)cc1 | inconclusive [inhibitor, single point] | 
CC1=C(C(=O)Nc2ccccc2)C(c2sccc2C)n2nnnc2N1 (stereo not drawn) |  | inactive: -13.7%
CCN(c1cccc(C)c1)S(=O)(=O)c1ccc(O)c(C(=O)O)c1 | inconclusive [inhibitor, partial curve] | 
CCN(CC)S(=O)(=O)c1cccc(C(=O)N/N=C/c2ccc(O)c(O)c2O)c1 | active: 25.1 µM | 
Cc1ccccc1C(=O)Nc1ccc2c(c1)OCO2 | active: 17.8 µM | 
Cc1cccc(NC(=O)c2c(F)c(F)c(F)c(F)c2F)c1 |  | inactive: -11%
O=C(c1coc(=O)c(Br)c1)N1CCOCC1 | inconclusive [inhibitor, partial curve] | 
CCOc1ccc(CC(=O)NNC(=S)Nc2ccccc2)cc1Br |  | inactive: -14.6%
S=c1nc[nH]c2nc[nH]c12 | inconclusive [inhibitor, single point] | 
